# The campaign covered roughly 310,000 compounds. About 2,200 (0.71%) showed an effect of 50% or more. Effects have a minus sign here. Some of the results follow.
# Biological target: human ether-à-go-go-related gene (hERG) potassium channel (human, UniProt Q12809)
# Experiment: primary screen, population patch clamp on CHO cells stably expressing hERG
# human ether-à-go-go-related gene (hERG) potassium channel, sequence (Q12809 whole entry, looked up): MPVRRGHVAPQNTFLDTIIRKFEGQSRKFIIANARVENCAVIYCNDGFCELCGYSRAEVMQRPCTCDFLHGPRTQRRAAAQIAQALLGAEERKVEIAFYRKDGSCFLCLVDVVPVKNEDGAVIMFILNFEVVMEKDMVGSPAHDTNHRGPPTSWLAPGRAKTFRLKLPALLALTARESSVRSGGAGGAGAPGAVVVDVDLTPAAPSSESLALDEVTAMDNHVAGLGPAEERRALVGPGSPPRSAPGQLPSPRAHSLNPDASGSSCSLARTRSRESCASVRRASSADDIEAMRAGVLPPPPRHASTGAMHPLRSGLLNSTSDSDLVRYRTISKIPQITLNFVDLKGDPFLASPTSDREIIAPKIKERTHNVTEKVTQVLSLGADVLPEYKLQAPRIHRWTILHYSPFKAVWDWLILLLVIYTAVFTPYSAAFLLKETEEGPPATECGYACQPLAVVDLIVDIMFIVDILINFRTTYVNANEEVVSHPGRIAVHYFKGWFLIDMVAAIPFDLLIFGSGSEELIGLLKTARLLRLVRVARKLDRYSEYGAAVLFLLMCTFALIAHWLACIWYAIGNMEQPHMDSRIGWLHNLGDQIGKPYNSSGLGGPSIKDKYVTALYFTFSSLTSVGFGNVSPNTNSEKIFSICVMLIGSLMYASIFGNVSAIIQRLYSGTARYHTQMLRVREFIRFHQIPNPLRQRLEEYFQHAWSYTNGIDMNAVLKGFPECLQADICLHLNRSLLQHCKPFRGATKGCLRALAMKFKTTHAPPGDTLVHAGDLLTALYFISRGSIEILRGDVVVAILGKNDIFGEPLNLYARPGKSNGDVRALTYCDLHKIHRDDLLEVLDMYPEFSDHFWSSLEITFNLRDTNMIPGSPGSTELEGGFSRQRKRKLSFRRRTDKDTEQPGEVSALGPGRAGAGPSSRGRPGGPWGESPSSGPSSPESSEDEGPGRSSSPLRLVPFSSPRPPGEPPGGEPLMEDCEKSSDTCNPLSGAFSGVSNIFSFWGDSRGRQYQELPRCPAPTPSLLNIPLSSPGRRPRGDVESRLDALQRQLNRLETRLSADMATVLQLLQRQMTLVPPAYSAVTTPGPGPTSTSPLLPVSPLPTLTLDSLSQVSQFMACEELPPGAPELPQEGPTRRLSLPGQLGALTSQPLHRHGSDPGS
row,Compound,"hERG current change (%, negative = inhibition) at 1uM [%]"
1,COc1cccc(CNC(=O)Cn2nc(C)c3c(C)n(-c4ccc(C)cc4)nc3c2=O)c1OC,18
2,Cc1c(CC(=O)O)c(=O)oc2c(C)c(OCc3ccc(F)cc3Cl)ccc12,13.6
3,CCCCCC(=O)Nc1cccc(S(=O)(=O)NC2=NCCC2)c1,14.8
4,COc1ccccc1CN1CCNC(=O)C1CC(=O)N(C)Cc1nc(C)cs1 (stereo not drawn),17.2
5,Cn1c(CCCCCN)nc2ccccc21,18.3
6,CC(OC(=O)CC1CCCCC1)C(=O)Nc1ccc(F)cc1 (stereo not drawn),9.09
7,COc1cccc(CNC(=O)Cn2ccc([N+](=O)[O-])n2)c1,16.9
8,COc1ccc(C(C)=O)cc1COC(=O)c1cc(C)nc2ccccc12,16.9
9,O=C(CNC(=O)c1ccccc1)Nc1ccc(Br)cc1C(=O)c1ccccc1,3.35
10,CN1CCN(S(=O)(=O)c2ccc(NC(=O)c3ccccc3Cl)cc2)CC1,13.2
11,CCC(=NCc1cccnc1)c1c(O)n(-c2ccccc2)c(=O)[nH]c1=O,1.32
12,Cc1cccc(Nc2nnc(SCC(=O)c3ccc(O)cc3O)s2)c1,-5.82
13,O=C(CSc1ccc(F)cc1)Nc1ccccc1N1CCOCC1,8.17
14,Cc1csc(NC(=O)C2CCCN(S(=O)(=O)c3cnc[nH]3)C2)n1 (stereo not drawn),24
15,CCN(Cc1cc(=O)n2ccsc2n1)c1cccc2ccccc12,13.1
16,COc1ccccc1CCNC(=O)Cc1cccs1,5.49
17,CCCCCN(C(=O)CCC(=O)OCc1cc(C(C)=O)ccc1OC)c1c(N)n(CCCC)c(=O)[nH]c1=O,-11.7
18,CCN(CC)c1ccc(NC(=O)c2ccc(=O)[nH]c2)cc1S(=O)(=O)Nc1ccc(OC)cc1,5.38
19,O=C(O)c1cc2c([nH]c1=O)CCCC2,11.6
20,CC(=O)C1C(c2ccccc2OC(F)F)NC(=O)NC1(O)C(F)(F)F (stereo not drawn),9.23
21,COc1cccc(N2CCN(C3CC(=O)N(c4ccc(Cl)cc4)C3=O)CC2)c1 (stereo not drawn),-9.45
22,CCOC(=O)c1ccccc1-n1c(C)cc(C2N=C(N)Nc3nc4ccccc4n32)c1C (stereo not drawn),5.83
23,Cc1cccc(N2CCN(C(=O)CCn3c(=O)[nH]c4ccsc4c3=O)CC2C)c1 (stereo not drawn),15

row,Compound,"hERG current change (%, negative = inhibition) at 1uM [%]"
1,COc1c(Cl)cc(Cl)cc1C(=O)Nc1ccc(NC(C)=O)cc1,5.36
2,CC(C(=O)NCc1ccccc1)N1CCN(c2ccc(F)cc2)CC1 (stereo not drawn),1.84
3,C/C(=C\c1ccccc1)C(=O)NCCN1CCOCC1,11.7
4,Cc1ccc(CC(=O)Nc2ccc(S(=O)(=O)Nc3nccc(C)n3)cc2)cc1,5.86
5,CNC(=O)Cn1nc(-c2ccc(C)cc2)c2ccccc2c1=O,1.96
6,Cc1cc(C)n(CC(O)COc2ccc(F)cc2)n1 (stereo not drawn),9.53
7,O=C1CC2OCC=C3CN4CCC56c7cc([N+](=O)[O-])ccc7N1C5C2C3CC46 (stereo not drawn),0.781
8,Cc1ccc(CNC(=O)CSCc2ccccc2F)cc1,12
9,COc1ccc(-c2n[nH]c(=S)n2-c2ccc(Br)cc2)cc1OC,16.7
10,CCCCN(Cc1ccco1)S(=O)(=O)c1c[nH]c(C(=O)OC)c1,12.5
11,COc1ccc(NC2CCCN(C(=O)c3ccc4[nH]c(C)c(C)c4c3)C2)cc1 (stereo not drawn),9.71
12,CCc1ccc(C2C(C#N)=C(N)N(N3CCOCC3)C3=C2C(=O)CC(C)(C)C3)s1 (stereo not drawn),10.4
13,COC(=O)Cn1c(=NC(=O)CSCC(=O)Nc2cc(C)on2)sc2ccccc21,15.3
14,CC(C)CC(CO)N1CCN(C(=O)c2ccccc2)CCC1=O (stereo not drawn),5.34
15,CCCCOc1ccc(-c2ncc(C(=O)OCC)c(N)n2)cc1,12.3
16,Cc1cccc(Cc2nnc(CCC(=O)NCc3cnc4ccccn34)o2)c1,11.9
17,CN1C(=O)NC(NC(=O)c2cccs2)(C(F)(F)F)C1=O (stereo not drawn),9.41
18,CN(C1CC(C)(C)N(O)C(C)(C)C1)S(=O)(=O)CC12CCC(CC1=O)C2(C)C.Cl (stereo not drawn),11.1
19,Cc1nc(CN(C)Cc2nc(Cc3ccccc3Cl)no2)cs1,4.14
20,c1ccc(CSc2ncnc3c2oc2ccccc23)cc1,9.56
21,CCCCCCSc1ccc([C@@H]2[C@H]3C(=O)N(C)C(=O)[C@H]3[C@]3(C(=O)OC)CCCCN23)cc1OC.O=C(O)C(F)(F)F,16.1
22,CCCCCC(=O)Nc1ccc(S(=O)(=O)NC2=NCCCCC2)cc1,15.3
